Source: PubChem BioAssay AID1346428 (National Center for Advancing Translational Sciences (NCATS), 2018)
Values joined by “and” are separate entries in the source; they are usually repeats but may differ in a detail not shown here. Equal entries are not always repeated. About 1,200 (2.5%) of roughly 48,000 compounds were called active. Inconclusive results (about 2%) are left out.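 How the source made its calls: active means activation of at least 60% and not above a set upper limit (about 1 call in 100 departs from these limits); inconclusive means activation of 40% to 60%, or above that upper limit; inactive means activation under 40%.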 The list shows a part of the results. Where a SMILES comes first, the peptide text is derived from it. The star is where a group is joined. Cbz = O=C(OCc1ccccc1)*

Molecular target: Probable G-protein coupled receptor 32 (Homo sapiens) (UniProt O75388)
Assay: qHTS for Agonists of Human Resolvin D1 Receptor DRV1; further: 0% is about no effect
Conditions: CHO-K1 GPR32 beta-arrestin PathHunter luminescence, 90 min; at 76.9 µM; stronger effect = higher value; zero percent set by DMSO-only wells
In short: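 Step 1: seed CHO-K1 GPR32 beta-arrestin cells, 2,500/well, overnight at 37 °C. Step 2: add compounds, 90 min at 37 °C. Step 3: detection reagent, 1 h ambient, then luminescence.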

Sequence of UniProt O75388 (O75388 whole entry, looked up): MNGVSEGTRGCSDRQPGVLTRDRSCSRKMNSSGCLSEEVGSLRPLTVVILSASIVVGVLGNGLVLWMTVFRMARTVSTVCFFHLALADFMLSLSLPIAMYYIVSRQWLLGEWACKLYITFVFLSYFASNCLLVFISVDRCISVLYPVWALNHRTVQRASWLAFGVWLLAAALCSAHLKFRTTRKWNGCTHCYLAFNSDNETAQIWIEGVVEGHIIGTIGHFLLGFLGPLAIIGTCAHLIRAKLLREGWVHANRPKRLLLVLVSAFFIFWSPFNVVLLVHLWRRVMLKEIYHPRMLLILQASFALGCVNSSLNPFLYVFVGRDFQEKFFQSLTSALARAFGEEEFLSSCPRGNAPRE

activation, active:
COCCCNC(=O)c1sc2nc(C)c(C(=O)Nc3ccc(Cl)cc3)c(-c3ccc(Br)cc3)c2c1N 64.1%

activation, inactive:
COc1cc2c(cc1OC)C(COc1ccccc1OC)N(C(=O)c1ccc(S(=O)(=O)N3CCCC3)cc1)CC2 (centres undefined) -5.88%
Cc1ccc(C)c(NC(=O)N2CCN(c3nnc(C)c4c(C)n(-c5ccccc5)nc34)CC2)c1 -4.53%
CC(C)[C@H](NC(=O)OCc1ccccc1)C(=O)N[C@H](C=O)Cc1ccccc1 (Cbz-Val-Phe-aldehyde) -6.37%
Cc1cc(C)c(S(=O)(=O)Nc2ccc(-c3ccc(N4CCCCC4)nn3)cc2)c(C)c1 13.5%
CCOc1ccccc1NC(=O)c1c(NC(=O)Cc2ccccc2)sc2c1CCCC2 -26.1%
COc1ccc(C)cc1NC(=O)CN1CCCN(S(=O)(=O)c2ccc(Br)cc2)CC1 -10%
Cn1cc(C(=O)N2CCN(c3cccc(Cl)c3)CC2)c(=O)c2cc(S(=O)(=O)N3CCCC3)ccc21 5.68%
O=C(O)Cc1cccc2ccccc12 45.4% and -6.42%
COCCCNC(=O)CN1C(=O)COc2ccc(S(=O)(=O)N3CCOCC3)cc21 -4.41%
CCOc1ccc(NC(=O)CSc2ccc3ccccc3n2)cc1 -17%
COC(=O)c1cc(OC)c(OC)c(OC)c1NC(=O)c1cc(=O)n(C)c(=O)n1C -7.72%
COC(=O)c1cccc(Nc2c(-c3ccc(O)cc3)nc3nc[nH]n23)c1 -18.8%
COc1ccc(N2CCN(C(=O)c3cn(C4CCCCC4)c(=O)c4c3c3ccccc3n4C)CC2)cc1 -33.9%
O=C(CCNS(=O)(=O)c1cccc2nonc12)Nc1ccc(F)cc1 -4.46%
COC(=O)CSCc1nc(-c2ccc(C(=O)OC)cc2)oc1C -5.3%
CCN(CC)c1nn2c(=O)c(C(=O)NCc3cccc(OC)c3OC)cnc2s1 -0.526%
COc1cccc(NC(=O)CSc2cc(C)[nH]c(=O)n2)c1 7.27%
CC1N=C2c3ccccc3N=C(SCC(=O)NCc3ccc(Cl)cc3)N2C1=O (centres undefined) -11.6%
CCCNC(C)(C)COC(=O)c1ccccc1 5.96%
CCS(=O)(=O)N1CC(=O)N(c2cccc(C)c2C)C(C)(C(=O)NC2CCCCCC2)C1 (centres undefined) -0.0738%
COc1cccc(-c2n[nH]c3c2C(c2cccc(O)c2)N(C)C3=O)c1 (centres undefined) -19.8%
Cc1nc(SCC(=O)Nc2ccccc2Cl)cc(-c2ccccc2)n1 -6.92%
Cc1c2cnn(-c3ccccc3)c(=O)c2c(C)n1CC(=O)N1CCN(c2cccc(Cl)c2)CC1 -1.5%
COc1ccc(CNC(=O)c2cnn(-c3ccc(OC)cc3)c2C2CCN(C(=O)OC(C)(C)C)CC2)cc1 -19.5%
Cc1ccccc1OCC(=O)NCC(c1ccc(Cl)cc1)N1CCOCC1 (centres undefined) -6.15%
CCCCOc1ccc(S(=O)(=O)Nc2ccc(-c3ccc(N4CCCCC4)nn3)cc2)cc1 -2.78%
Cc1cccc2c1-c1sc(C(=O)Nc3ccccc3C(N)=O)cc1CO2 -5.23%
CCC(=O)Nc1cc(-c2nc3cc(C)cc(C)c3o2)ccc1C -21.5%
CCc1cc2c(cc3c(=O)n(CC(=O)NC4CCC(C)CC4)nc(CC)n32)s1 (centres undefined) -9.51%
O=C1c2oc3ccccc3c(=O)c2C(c2ccccc2F)N1Cc1ccc2c(c1)OCO2 (centres undefined) -22.7%
O=C(Nc1cccc2cccnc12)c1cccc2c(Br)cccc12 20.4%
Cc1cc(C)cc(NC(c2cccc(Cl)c2)c2nnc(-c3ccccc3)o2)c1 (centres undefined) -13.3%
Cc1c(C(=O)N(C)c2ccccc2)sc2nc(-c3ccc(F)cc3)cn12 -20.1%
CCc1ccccc1NC(=O)Cn1c(C(=O)OC)cc2oc(C)cc21 -7.3%
CCOC(=O)c1ccc(NC(=O)c2cccc3c(=O)c4c([nH]c23)CCCC4)cc1 -9.86%
COc1ccc(NC(=O)Cn2ccn(Cc3ccccc3)c(=O)c2=O)cc1Cl -5.52%
Cc1ccc2onc(CNC(=O)N(C)Cc3ccccc3)c2c1 -7.12%
CCN(CC)CCNC(=O)c1sc2nc(C)cc(C)c2c1-n1cccc1 1.88%
COc1ccc(-n2c(Cc3ccccc3)nnc2SCc2nc(-c3ccccc3C)no2)cc1 -34.9%
CN(C(=O)CSc1cn(CC(=O)N2CCCC2)c2ccccc12)c1ccccc1 -11.5%
O=C1c2[nH]nc(-c3ccccc3O)c2C(c2cccc(Br)c2)N1Cc1ccncc1 (centres undefined) -7.99%
CN(C)c1ccc(CNC(=O)Cn2c(=O)oc3cc(S(=O)(=O)NCc4ccccc4)ccc32)cc1 -14.6%
CCC1CN(C(=O)N2CCC(C(=O)NCCCc3ccccc3)CC2)c2ccccc2O1 (centres undefined) -9.98%
CCN1CCN(c2cc(C)c3cc(NC(=O)c4cc(Br)ccc4Cl)ccc3n2)CC1 -10.3%
CCCC12CN3CC(C)(CN(C1)C3c1cn(CC)c3ccccc13)C2=O (centres undefined) -1.89%
CC(=O)N1CCCc2cc(S(=O)(=O)N3CCC(C(=O)NCc4ccccc4Cl)CC3)ccc21 -7.92%
O=C(NCc1ccccc1Cl)c1ccc2nc(Cc3ccccc3)oc2c1 -12.8%
CCOC(=O)c1c(C)[nH]c(CCC(=O)Nc2ccccc2OCC)c1C -15.6%
COc1ccc2oc(=O)cc(CN3CCN(c4ccccc4OC)CC3)c2c1 -12.3%
COCCCNC(=O)CSc1nc(-c2ccc(OC)cc2)[nH]c1-c1ccc(OC)cc1 -29%
Cc1nn(CCC(=O)N2CCN(c3ccccc3F)CC2)c(C)c1S(=O)(=O)N1CCCC1 -0.872%
COc1ccc(C(=O)Nc2cc3cc(Cl)ccc3oc2=O)cc1OC -23.3%
COc1ccc(CNC(=O)c2ccc(CS(=O)(=O)c3ccc(OC)cc3)o2)cc1 -10.5%
